Measured values from PubChem BioAssay AID651820 (National Center for Advancing Translational Sciences (NCATS), 2012).
The whole screen tested about 340,000 compounds, of which about 12,000 (3.5%) were called active. The inconclusive results got no clear call from the source; some entries with a clear call stand among them for comparison. The call rests on the fitted dose curve; in most records, active means well fitted inhibition curve with a large enough effect; inconclusive means small, poorly fitted or top-dose-only effect, or another doubt; inactive means no such curve, though single readings can be large or run the other way. Potencies of inconclusive entries are left out as doubtful fits.

Assay: qHTS Assay for Inhibitors of Hepatitis C Virus (HCV)
Details: Huh7.5.1 HCVcc-Cre (HCVcc is cell-culture hepatitis C virus) infection, luciferase reporter, 44 h; series mostly up to 41.8 µM
Method in brief: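 HCVcc-Cre virus at an moi near 0.5 was added right after compound to cells cultured 4 h from seeding (1,000 cells/well). Luciferase activity was determined 44 h later, 15 min after substrate addition at RT.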
Potency means the concentration at half of the fitted maximal effect; tags describe the fitted curve by direction and shape.

| Structure (SMILES) | Potency |
| --- | --- |
| COc1ccc(Sc2cc(C(F)(F)F)nc(-c3ccccn3)n2)cc1 | inactive |
| Cc1cc(C)c2nc(N(CCCN(C)C)C(=O)c3ccc(S(=O)(=O)N4CC(C)OC(C)C4)cc3)sc2c1 (centres undefined) | inconclusive [inhibitor, single point] |
| COCCCNCCOCCSc1ccc(Cl)cc1 | inconclusive [inhibitor, partial curve] |
| COc1ccc(/C=N/NC(=O)c2nc(-c3ccccc3)cc(-c3ccccc3)n2)cc1OC | inconclusive [inhibitor, single point] |
| COc1ccc(Cn2nnnc2CN2CCC(c3nc4ccccc4s3)CC2)cc1 | active: 25.1 µM |
| CCCC(=O)NC(c1cccs1)c1cc([N+](=O)[O-])c2cccnc2c1O (centres undefined) | inconclusive [inhibitor, single point] |
| COC(=O)c1c(N2C(=O)CC(Sc3ncccc3C(=O)O)C2=O)sc(C)c1C (centres undefined) | inactive |
| COc1ccc(-c2nc3ccccc3o2)cc1NC(=O)CSc1ccc(Cl)cc1 | inconclusive [inhibitor, full curve] |
| Cc1ccc(OCC(=O)Nc2ccc(N3CCCC3)cc2)cc1C | inconclusive [inhibitor, single point] |
| Clc1cccc(CNc2nnnn2-c2ccccc2)c1 | inconclusive [inhibitor, single point] |
| CCCCn1c(N)c(N(CC(C)C)C(=O)c2ccc(N3C(=O)c4ccccc4C3=O)cc2)c(=O)[nH]c1=O | inconclusive [inhibitor, single point] |
| COCc1ccc(CN2CCCC(C(=O)Nc3ccc(-c4cccc(OC)c4)cc3)C2)o1 (centres undefined) | active: 10 µM |
| COc1ccc(NC(=O)C(C)N2c3cccc4cccc(c34)S2(=O)=O)cc1OC (centres undefined) | active: 6.31 µM |
| COc1ccccc1NC(=S)N(Cc1cccs1)C1CCCC1 | inactive |
| COc1cccc(/C=N/Nc2nc3ccccc3n3cnnc23)c1O | inconclusive [inhibitor, single point] |
| Fc1ccc(-c2csc(N3CCOCC3)n2)cc1 | inconclusive [inhibitor, single point] |
| Cc1cccc(NC(=O)c2nc[nH]c2C(=O)N[C@@H](C)c2ccccc2)c1 | inconclusive [inhibitor, single point] |
| Cc1c(C(=O)Nc2ccc(F)cc2)nnn1-c1cccc(C(F)(F)F)c1 | inconclusive [inhibitor, partial curve] |
| COC(=O)Cc1ccc(NC(=S)NCCSc2ccc(C)cc2)cc1 | inconclusive [inhibitor, single point] |
| COCc1cc(=O)oc2cc(NC(=O)c3ccc(C(C)(C)C)cc3)ccc12 | inconclusive [inhibitor, partial curve] |
| O=C(NCC1(c2ccccc2)CCCC1)c1ccc(Br)o1 | inconclusive [inhibitor, single point] |
| O=C(NC(CC(=O)N1CCN(c2ccc([N+](=O)[O-])cc2)CC1)c1ccccc1)c1ccccc1Cl (centres undefined) | inconclusive [inhibitor, single point] |

| Structure (SMILES) | Potency |
| --- | --- |
| CC(=O)c1ccc(OCCCC(=O)Nc2ccc(Cl)c(S(=O)(=O)N3CCOCC3)c2)cc1 | active: 2.51 µM |
| Cc1ccc(Cn2ncc(C)c2N)o1 | inconclusive [inhibitor, single point] |
| O=C(c1ccc(COc2ccccc2Br)cc1)N1CCCCC1 | inconclusive [inhibitor, single point] |
| CCNC(=S)NC1CC2CCCC(C1)N2CCc1ccccc1 (centres undefined) | inconclusive [inhibitor, single point] |
| CC(=O)Nc1cccc(NC(=O)Cc2ccc3ccccc3c2)c1 | inconclusive [inhibitor, single point] |
| COc1ccc(OC)c(NP(=O)(Oc2ccccc2)Oc2ccccc2)c1 | inconclusive [inhibitor, single point] |
| O=[N+]([O-])c1cccc(-c2ccc(C(=S)N3CCN(c4ccc(F)cc4)CC3)o2)c1 | inconclusive [inhibitor, single point] |
| O=C(CSc1nnnn1C1CC1)N1CCN(c2cccc(Cl)c2)CC1 | active: 12.6 µM |
| C=CCc1cccc(/C=N/NC(=O)C(C)Nc2ccc(C)cc2)c1O (centres undefined) | active: 10 µM |
| O=C(CN1CCN(S(=O)(=O)c2ccc(Cl)s2)CC1)N1CCCCC1 | inactive |
| O=C(CCNS(=O)(=O)c1ccccc1)N1CCC(Cc2ccccc2)CC1 | inconclusive [inhibitor, single point] |
| O=C(c1ccc2[nH]c3c(c2c1)CCCC3)N1CCN(c2ccc(F)cc2)CC1 | inactive |
| Cc1cccc(N2CCN(c3nc(C)cc(C)c3C#N)CC2C)c1 (centres undefined) | inconclusive [inhibitor, partial curve] |
| CCOC(=O)c1c(C)oc2c1c(C(c1cccnc1)N1CCN(C)CC1)c(O)c1ccccc12 (centres undefined) | active: 11.2 µM |
| COc1ccc(-c2c(-c3ccccc3OC)sc3ccccc23)cc1OC | inconclusive [inhibitor, single point] |
| COc1ccc(CNC(=O)COC(=O)c2n[nH]c3ccccc23)cc1OC | active: 10 µM |
| Cc1ccc(O)c(N)c1 | inactive |
| COc1ccc(S(=O)(=O)N2CCCCCC2)cc1C(=O)N(C)Cc1ccc(C(C)(C)C)cc1 | active: 14.1 µM |
| CSCCC(NC(=O)c1ccc(Cl)cc1Cl)C(=O)N1CC(C)OC(C)C1 (centres undefined) | inconclusive [inhibitor, single point] |
| COC(=O)c1cccc(S(=O)(=O)N(Cc2ccco2)Cc2cc3cc(OC)ccc3[nH]c2=O)c1 | inconclusive [inhibitor, single point] |
| CCOc1ccc(C(=O)NC(=S)Nc2ncccc2C)cc1[N+](=O)[O-] | inconclusive [inhibitor, single point] |
| O=C(Cn1c2ccccc2c(=O)c2ccccc21)N/N=C/c1cc([N+](=O)[O-])ccc1N1CCCCCC1 | active: 2.51 µM |
